According to the RNAGym collection of RNA variant scans (doi:10.1093/nar/gkz1192):
Read counts are not given, so values of variants with three or more changes are uncertain.

B1: CPEB3 Ribozyme (parent)
chain: UAACAGGGGGCCACAGCAGAAGCGUUCACGUCGCAGCCCCUGUCAGAUUCUGGUGAAUCUGCGAAUUCUGCUGUAUAUCUC

Variants of: B1
Assay: self-cleavage, relative activity (ratio to wild type); higher = more cleavage; in vitro, sequencing
In short: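 Relative activity compares each variant's cleaved/total read fraction with that of the unmutated ribozyme. To get these fractions, barcoded CPEB3 ribozyme libraries from rounds of error-prone PCR were transcribed with T7 RNA polymerase for 5 hours at 37°C and then given 15 min of DNase I treatment before EDTA was added. The RNAs were reverse transcribed with template switching and sequenced on Illumina, and DNA sequencing linked barcodes to variants. A minimum of 5 reads applied, and three batches were averaged.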

Row | Variant | self-cleavage
1 | UUACAGGGGGCCACAGCAGAAGCGUUCACGCCGCAGCCCCCGUCAGAUUCUGAUGAGUCUGCGAAUUCUGCUGUAUAUCUC [A2U U31C U41C G53A A57G] | 0.52
2 | UUACAGGGGGCCACAGCAGAAGCGUUCACGUCGCAGCCCCAGUCAGAUUCUGGUGAAUCUGCAAAUUCUGCUGUAUAUCUC [A2U U41A G63A] | 0.35
3 | UUACAGGGGGCCACAGCAGAAGCGUUCACGUCGCAGCCCCAGUCAGAUUCAGGUGAAUCUGCGAAUUCUGCUGUAUAUCUC [A2U U41A U51A] | 0.73
4 | UUACAGGGGGCCACAGCAGAAGCGUUCACGUCGCAGCCCCGGUCAGAUUCUGGUGAAUCUGCGAAUCCUACUGCAUAUCUC [A2U U41G U67C G70A U74C] | 0
5 | UUACAGGGGGCCACAGCAGAAGCGUUCACGUCGCAGCCCCUGUCAGAUUCUGGCGAAUCUGCGGAUUCCACUGUAUAUCUC [A2U U54C A64G U69C G70A] | 0.16
6 | UUACAGGGGGCCACAGCAGAAGCGUUCACGUCGCAGCCCCUGUCAGAUUCUGGCGAAACUGCGAAUUCUGCUGUAUAUCUC [A2U U54C U58A] | 0.31
7 | UUACAGGGGGCCACAGCAGAAGCGUUCACGUCGCAGCCCCUGUCAGAUUCUGGGGAUUCUGCGAAUUCUACUGUAUGUCUC [A2U U54G A57U G70A A77G] | 0.3
8 | UUACAGGGGGCCACAGCAGAAGCGUUCACGUCGCAGCCCCUGUCAGAUUCUGGUGAAUCUGCGAAUCCGGCUGUAUUUCUC [A2U U67C U69G A77U] | 0.25
9 | UUACAGGGGGCCACAGCAGAAGCGUUCACGUCGCAGCCCCUGUCAGAUUCUGGUGAAUCUGCGAAUUCUGCUGCUUAUCUC [A2U U74C A75U] | 1.1
10 | UACCGGGGGGCCACAGCAGAAGCGUUCCCGUCGCAGCCCCUGUCAGAUUCUGGUGAAUCUGCGAAUUCUGCUGUAUAUCUC [A3C A5G A28C] | 0.65
11 | UACCGGGGGGCCACAGCAGAAGCGUUCGCGUCGCAGCCCCUGUCAAAUUCUGGGUAAUCUGCGAAUUCUGCUGUAUAUCUC [A3C A5G A28G G46A U54G G55U] | 0.03
12 | UACCGGGGGGCCACAGCAGAAGCGUUCGCGUCGCAGCCCCUGUCAGAUUCUGGUUAAUCUGCGAAUUCUGCUGUAUAUCUC [A3C A5G A28G G55U] | 0.69
13 | UACCGGGGGGCCACAGCAGAAGCGUUCACGUCGCAGCCCCAGUCAGAUUCUGGUGAAUCUGCGAAUUCUGCUGUAUGUCUC [A3C A5G U41A A77G] | 0.17
14 | UACCUGGGGGCCACAGCAGAAGCGUUCACGUCGCAGCCCCUGUCAGAUUCUGGUGAAUCUGCGAAUUCUGCUGUAUACCUC [A3C A5U U78C] | 1.03
15 | UACCAGGGGGCCCCAGCAGAUGCGUCCACGUCGCAGCCCCUGGCAGAUCCUGGUGAAUCUGCGAAUUCUGCUGUAUAUCUC [A3C A13C A21U U26C U43G U49C] | 0.08
16 | UACCAGGGGGCCGCAGCAGUAGCGUUCACGUCACAACCCCUGCCAGAUUCUGGUGAAUCUGCGAAUUCUGCUGUAUAUCUC [A3C A13G A20U G33A G36A U43C] | 0.24
17 | UACCAGGGGGCCGCAGCAGAAGCGUUCACGUCGCAGCCCCUGUCAGAUUCUGGUGAAUCUGCGAAUUCUGCUGCAUAUCUC [A3C A13G U74C] | 1.1

Row | Variant | self-cleavage
18 | UACCAGGGGGCCACGGCAGAAGCGUUCGCGUCGCAGCCCCUGUCGGAUUCUGGUGAAUCUGCGAAUUCUGCUGUAUAUCUC [A3C A15G A28G A45G] | 0.48
19 | UACCAGGGGGCCACUGCAGAAGCGUUCACGUCGCAGCCCCUGUCAGAUUCUGGUGAAUCUGAGAAUUCUGCUGUAUAUCUC [A3C A15U C62A] | 0.08
20 | UACCAGGGGGCCACAGCGGAAGCGUUCACGUCGCAGCCCCUGUCAGAUUCCGGUGAAUCUGCGAAUUCCGCUGUAUAUCCC [A3C A18G U51C U69C U80C] | 1.35
21 | UACCAGGGGGCCACAGCAGGAGCGUUCACGUCGCAGCCCCUGUAAGAUUAUGGUGAAUCUGCGAAUUCUGCUGCAUAUCUC [A3C A20G C44A C50A U74C] | 0.15
22 | UACCAGGGGGCCACAGCAGAGGCGUUCACGUCACAGCCCCUGUCAGAUUCUGGUGAAUCUGCGAAUUCUGGUGUAUAUCUC [A3C A21G G33A C71G] | 0.2
23 | UACCAGGGGGCCACAGCAGAGGCGCUCACGUCGCAGCCCCUGUCAGAUUCUGGUGAAUCAGCGAAUUCUGCUGUAUAUCUC [A3C A21G U25C U60A] | 0.39
24 | UACCAGGGGGCCACAGCAGAAGCGUUCGCGUCGCAGCCCCCGUCAGAUUCUGGUGAAUCUGCGAAUUCUGCUGUAUAUCUC [A3C A28G U41C] | 0.95
25 | UACCAGGGGGCCACAGCAGAAGCGUUCACGUCGCAGCCCAAGUCAGUUUCUGGUGAAUCUGCGAAUUAUGCUGCAUAUCUC [A3C C40A U41A A47U C68A U74C] | 0.28
26 | UACCAGGGGGCCACAGCAGAAGCGUUCACGUCGCAGCCCCUGUCAGAUUAUGGUGAAUCUGCGAAUUCUGCAGCAUAUCUC [A3C C50A U72A U74C] | 1.24
27 | UACCAAGGGGCCACAGCAGAAGCGUUCACGUCGCAGCCCCUGUCAGAUUCUGGUGAAUCUGCGAAUUCUGCUGUAUGUCAC [A3C G6A A77G U80A] | 0.58
28 | UACCAGAGGGCCACAGCAGAAGCGUUCACGUCGCAGCCCCUGUCAGUUUCUGGUGAAUCCGCGAAUUCUGCUGUAUAUCUC [A3C G7A A47U U60C] | 0.07
29 | UACCAGGAGGCCACAGCAGAAGCGCUCACGUCGCAGCCCCUGUCAGAUUCUGGUGAAUCUGCGAAUCCUGCUGCAUAUCUC [A3C G8A U25C U67C U74C] | 0.3
30 | UACCAGGGUGCCACAGCUGAAGCGUUCACGCCGCAGCCCCUGUCAGAUUCUGGUGAAUCUGCGAAUUCUGCCGUAUAUCUC [A3C G9U A18U U31C U72C] | 0.08
31 | UACCAGGGUGCCACAGCAGAAGCGUUCACGUCGCAGCCCCAGUCUGAUUCUGGUGUAUCUGCAAAUUCUGCUGUAUAUCUC [A3C G9U U41A A45U A56U G63A] | 0.08
32 | UACCAGGGGCCCACAGCAGAAGCGUUCACGUCUCAGCCCCUGUCAGAUUCUGGUGAUUCUGCGAAUUCUGCUGUAUAUCUU [A3C G10C G33U A57U C81U] | 0.05
33 | UACCAGGGGGCCACACCAGAAGCGUUCACGUCGCAGCCCCUGUCAGAGUCUGGUGAAUAUGCGAAUUCUGCUGUAUAUCUC [A3C G16C U48G C59A] | 0.33
34 | UACCAGGGGGCCACAGCAGAAGCGUUCACGUCGCAUCCCCUGUCAGAUUCGGGGGAAUCUGCGAAUUCAGCUGUAUAUCUC [A3C G36U U51G U54G U69A] | 0.11
